The supplement of paper PMC12632987
Over roughly 4,500 sequences, “median log2 fold change of GCK-ALFA target abundance (FLAG IP / Myc IP barcode read proportion)” has its median near 0.078; the lowest 2% begin near -0.6. The list shows a part of the results.

B1: GBRAP_160_4836 (protein)
chain: SEKEKKVKEKLEEARDFVLSLVDEVSVDDLANFYDSEVGSVLLELYEEGYINEEAEDKGMELRDEGVAALRAAADASPEELRALIDESIERIEKAILELL
B2: GBRAP_14_3857 (protein)
chain: MEELIKAIKEAAEETIKFAKELLPEHAEEISAKIKELAEEAIKKVKEENLNKEEVAELADEMAEKLGKYIKEKGYANEEEIAALRAHLINEVLLELEKVE
B3: GBRAP_166_4907 (protein)
chain: MKEEKIKKLIEEAKKLIEELKTADEEEALELLIEIGEVLKELKELGASEEEILKLVKETLEAVKEKGFSVKVAAGIIANEADFDEEEIEKLDEIAKEVEE
B4: GBRAP_26_5446 (protein)
chain: IEEEIDALEDELEALIDELLPPELAGPAKAVLLTLLEELEEELEKNIDDEEKQEELVKEFLEELRKELLELGVPEEHVEKIVKAAEEGLEKILKAIKEKK
B5: GBRAP_39_5642 (protein)
chain: EEEEENELIFSYLLAVGAKIQYEKGWSYEEVKKETLELLDELAKKYPEIKELLEELKELVEKGDEETVLAAYGLVKLAKEGTPVEEVKENAEKLIKYLKS
B6: GBRAP_52_5966 (protein)
chain: MKEKAEKAVKEAIALEKAGDREGLRALLREIARTWNDEELEELAKALAKAAKEGDEETAEIALEVAILLADVLEEEGRDPRLAADLLGLVATAAYEKELE
B7: GBRAP_160_4356 (protein)
chain: MEKTEKLIKEIKEATEEVIKEVDKLSREEVGTIAAGLYGEIAMEAVEDESMSDEVEDIIVEARDEILKLLKEMKDASREEIKKKIKEITEKAIEKIKEAS
B8: GBRAP_166_4980 (protein)
chain: DQEKKVEALKKLIKERAEKAKEADYEEKLELLAEVAEEIKKAKEEGLSKENLKELIKFTLKEFSKVGIKLSDVFGALSIIADLDEEEIELLLEAEKEVRA
B9: GBRAP_160_4256 (protein)
chain: SEKVEEIAKELREEMEEIIEEAAELTPEELAAAIAGAIGSAIMELIELGLITEEQEDKLIEIEDEAVATALRKAELSLEELKARLKELLEEFLKVLEEAK
B10: GBRAP_139_3754 (protein)
chain: DATAAAAAEMAAAVADPSTTLEEIEALFRKIVAELDEEGIKEVIKAMAKALVTKPVETIEEIEEMVLKILKEAGKSEDVQDFAEAEFNGAAALSAAREEA
B11: GBRAP_160_4425 (protein)
chain: SPTVERVAEILDETEELVLEEVEEGRWENALTAARVGAGEVLLEVDSDPRVSEEAEEKVAAILDATVATLAANPDATPEEVRALLRETRAAVVETLEADL
B12: GBRAP_14_3872 (protein)
chain: KEEALAIALEEIEEMAELLIEAIPEKKEEIEKMKERLVAAAEEFFTSLEDPEEAAEALEAKANAEIAEFTKTLSPEDAALAKAIAGTELGNLRLEIDELL
B13: GBRAP_83_6992 (protein)
chain: KEKIVVAAPGDRIEEAVEIAIDLTKEEGLEVDIEIIARREDLPRVLEAARKLAEAGINTELTVILEGATEEEAEKLEAEIKAIAEKYGVDIKVTIHLVEP
B14: GBRAP_42_5729 (protein)
chain: MIAITLEIVADTQEEAQAMVDAALAEDERLLKEKGVVVRIEVAVPEGLSPEIKAKEAASAERAKTATHESDWVGVANTLEEVPKTIEAVADEALAELAEK
B15: GBRAP_78_6704 (protein)
chain: EVEELLDKAIEELNKAAKLLVPLKTELANDALGEIVDASSYLVESEENGVDKELVKEALEEVEKAIELAKKLDSEKKPEILEHLEKAKELIKKALELLEK
B16: GBRAP_52_5880 (protein)
chain: KLEEAIKKLKEAIEAMKAGDKEEAEKILKEIVEEFDEETILKAVEKLAEEIKSKSLEEAKAFYETAEKLAEILLEEGGSEEVASYIEALAGAALYEVEQK
B17: GBRAP_9_7174 (protein)
chain: LKKAAEKAIKEAKEAKAFILEIAPEAAAGAVAEAFDELIKTLEEAKADPSVTKEEFEKALEEGIAKIIANAKAHLSPEVAAAVETEMYTIEYEADEELDK
B18: GBRAP_11_2810 (protein)
chain: KKEKLKKAAELAEKAAKAVEKLLKEGVDNEELLKKIEELLKELEKLAKEYLDKGTQKLVEIAKELLKEAKEDKENAKKYLEELLATLRVALGNVLLEIEE
B19: GBRAP_160_4542 (protein)
chain: SEKVEELLEDLDEETEELKELVDKVSNEELINFVDVSIGSLILEGIELGLFSDETEDEIDEIRDETLARLKENKNASPEEKKAIIEEAAEKIKEVIKKSS
B20: GBRAP_184_5312 (protein)
chain: EVKEVVIEAETAEEAIKKLEEAAKKAKEEGVKLNVYLFLKNVDVEGFKRIAEKIKELKEEGIIENAVVHIEDDKSEEEIDKFIEIADAAGIKLVVALPDE
B21: GBRAP_160_4328 (protein)
chain: SESVEKLKKEIKEEFEELKELIKGESIEQRKVLLAGTFGEILMLLSENPDVSDEALDKVDEIEDEALKTLDENPDLSEEEIKKLIEESEEKVLKTLDELA
B22: GBRAP_78_6724 (protein)
chain: KLEELIEEAIEELNKAAKLLKEFPEEDRNELLDLIVDAMSYLLEAEEEGGDLEELEKALEEVEKAIELVKKLNREEAKPLLEELEKARKLLEEAIKLLKE
B23: GBRAP_139_3687 (protein)
chain: SALEAKIAEAVALAERTLTEGEAPLRALARLLASLNEEDRIAVARAIGERLLDLPYDTAEAIFDRLEAIAREELGDEDLAEIIEAERNELLARIAVREEE
B24: GBRAP_52_5994 (protein)
chain: MREEAREVAERAVALRLAGREEEARALLEEVAETKSEEFLEMVARELAELARTADPATRDAIVDVAIMLEDIMHEKGFDEAIADTNLARVAAAAYDALQR
B25: GBRAP_83_6994 (protein)
chain: KEKITVAAPGDHLAEAADAAIDLHKEEGYEVELEFLITPEDREAVLAAVERLAKAGIETEVTVLAEGFTPEELAELEAELKAIAAAAGAKIKITVEGIEL
B26: GBRAP_83_6962 (protein)
chain: MEEVVVATTKDHVESAAEAARDLATEEGYKVTVELLGDPEEVLESAKIVAEALKDLPNVEIRAVIENVRKEEAEKTKEELKKIGEKYGLKIEFEAELVEP
B27: GBRAP_52_6262 (protein)
chain: MREELRRKAEEALALVKEGKEEEARKLLKELAEELNEEEFELFVDEVARLAEEAAPEDLEAMERLVELAAEEFEEAGKPEELVSLLEAEGYGALYKRRQA
B28: GBRAP_128_3574 (protein)
chain: SSEEVLEKAKKLIKKIIESDVEEAKKYAKELVELLKEADPETREKIVEEILKALPKLTVEKLETLADVFREKMPEADPEVANLLAEIAVEALNLAVEKEE
B29: GBRAP_125_3111 (protein)
chain: DMEEVLEALAIVLRALGFDDDEIEEALELARRYGIKGTMIAVALAEGYEEVADLLEKLTEEEVKQALLETAAAIKANPELTPEEVKELLEEVLKKLLAAS

molecular target: GABARAP, O95166; test: median log2 fold change of GCK-ALFA target abundance (FLAG IP / Myc IP barcode read proportion) (log2 ratio); each designed protein is fused to an ALFA-tag nanobody in HEK293 cells to bring the named protein to FLAG-tagged glucokinase (GCK); Myc marks an untargeted standard; higher = target protein stabilised (more abundant); details: target protein: 3xFLAG-MCP-GCK-ALFA reporter; HEK293 landing pad (RPLP)
Sequence (O95166 whole entry, the tested form may be a part): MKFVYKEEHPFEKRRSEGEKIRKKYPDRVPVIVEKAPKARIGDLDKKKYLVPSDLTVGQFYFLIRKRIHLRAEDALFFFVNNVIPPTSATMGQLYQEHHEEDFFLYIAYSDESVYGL
How it was run: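 An ALFA-nanobody-fused binder library was recombined into HEK293 landing-pad cells and induced with 2 μg mL^−1 doxycycline. Cells were transfected with a plasmid expressing a FLAG-tagged target and a Myc-tagged standard. After 48 h, lysates underwent anti-FLAG and anti-Myc immunoprecipitation, and circular RNA barcodes were reverse transcribed, amplified and sequenced. Target abundance is the per-binder median log2 ratio of FLAG to Myc barcode read proportions. Barcodes needed ≥10^−7 proportion in both replicates, binders ≥3 barcodes per replicate, and a 10^−6 pseudocount was added; the two replicates were pooled.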

Row | Binder | median log2 fold change
1 | B1 | 0.12
2 | B2 | 0.158
3 | B3 | 0.294
4 | B4 | 0.147
5 | B5 | -0.188
6 | B6 | -0.188
7 | B7 | 0.156
8 | B8 | 0.183
9 | B9 | -0.154
10 | B10 | 0.287
11 | B11 | -0.375
12 | B12 | -0.23
13 | B13 | 0.0198
14 | B14 | -0.261
15 | B15 | 0.211
16 | B16 | 0.268
17 | B17 | -0.218
18 | B18 | 0.179
19 | B19 | -0.0705
20 | B20 | 0.275
21 | B21 | -0.0431
22 | B22 | 0.0739
23 | B23 | 0.162
24 | B24 | 0.194
25 | B25 | 0.106
26 | B26 | 0.214
27 | B27 | -0.0543
28 | B28 | 0.241
29 | B29 | -0.903
